Assays:
[1] = tested on: BaF3 cells expressing FGFR3 S249C+V557M; test: BaF3 cell proliferation, FGFR3 S249C+V557M; format: cell-based; details: FGF1/heparin, 72 hours
From the text: cDNA expressing FGFR3 mutants (S249C, S248C, Y375C, V555M, V555L, S249C+V555M, or S249C+V555L) were synthesized and cloned into pLVX Lenti-viral vector (Thermo Fisher). Viral particles were generated by lipofectamine transfection of LentiX 293T cells using Lenti-X packaging single shots following manufacturer's protocol (Clontech/Takara) and concentrated using Lenti-X concentrator and titer determined using Lenti-X p24 rapid titer kit (Clontech/Takara). BaF3 cells were transduced with virus at ˜0.3 MOI.
For cell proliferation assays, engineered BaF3/hFGFR3 cells grown in complete medium were washed and plated in IL-3-free culture media±5 μg/ml heparin and 1 nM human FGF1. Cells were plated out at 1×10^5 cells/well into 96-well plates, followed by the addition of 1:3 serially diluted antibodies as indicated in figures. After addition of antibodies, cells were incubated at 37° C. for 72 h followed by the addition of CellTiter-Glo™ (Promega) reagent. The luminescent signal was detected by Envision plate reader (PerkinElmer). Data was analyzed using Prism software (GraphPad). […]

[2] = tested on: BaF3 cells expressing S248C hFGFR3b; test: BaF3 cell viability, S248C hFGFR3b; format: cell-based; details: 1 nM FGF1, 5 μg/ml heparin
From the text: cDNA expressing FGFR3 mutants (S249C, S248C, Y375C, V555M, V555L, S249C+V555M, or S249C+V555L) were synthesized and cloned into pLVX Lenti-viral vector (Thermo Fisher). Viral particles were generated by lipofectamine transfection of LentiX 293T cells using Lenti-X packaging single shots following manufacturer's protocol (Clontech/Takara) and concentrated using Lenti-X concentrator and titer determined using Lenti-X p24 rapid titer kit (Clontech/Takara). BaF3 cells were transduced with virus at ˜0.3 MOI. Expression of FGFR3 receptors was confirmed by FACS analysis and western blot.
For cell proliferation assays, engineered BaF3/hFGFR3 cells grown in complete medium were washed and plated in IL-3-free culture media±5 μg/ml heparin and 1 nM human FGF1. Cells were plated out at 1×10^5 cells/well into 96-well plates, followed by the addition of 1:3 serially diluted antibodies as indicated in figures. After addition of antibodies, cells were incubated at 37° C. for 72 h followed by the addition of CellTiter-Glo™ (Promega) reagent. The luminescent signal was detected by Envision plate reader (PerkinElmer). Data was analyzed using Prism software (GraphPad).
Next, cell viability was assessed using BaF3 cells expressing S248C hFGFR3b, cultured in a medium with 1 nM FGF1 and 5 μg/ml heparin in the absence (control) or presence of mAb063 or BiP063N2 as described in Section 8.1.4.

[3] = tested on: MAPK phosphorylation in BaF3 cells expressing WT hFGFR3b; test: Western blot of FGF1/heparin induced MAPK phosphorylation in BaF3 WT hFGFR3b cells; format: cell-based; details: 100 nM antibody overnight; 100 nM FGF1 + 10 μg/ml heparin 15 min
Description: To evaluate receptor phosphorylation and downstream signaling, cells were serum starved overnight in the presence or absence of indicated antibodies followed by ligand (100 ng/ml human FGF1 and 10 μg/ml heparin) stimulation for 15 min at 37° C. Equal amounts of cell lysates were analyzed by SDS-PAGE. Blots were incubated with pMAPK, MAPK or actin antibodies followed by incubation with HRP secondary antibody. For FGFR3 phosphorylation, equal amounts of cell lysates were incubated with pY100 Sepharose beads overnight and non-specific binding was removed by washes with lysis buffer. Immunoprecipitated proteins were analyzed by reducing or non-reducing SDS-PAGE and blotted with FGFR3 antibody.

[4] = tested on: UMUC14 tumors (FGFR3 S249C); test: In vivo tumor growth inhibition, UMUC14 xenograft; design: species or system mouse
From the text: Tumor cells (5×10^6 UMUC14 or RT112 in 50% Matrigel) were implanted subcutaneously (s.c.) into the right flank of 6 to 8-week-old female SCID mice (Jackson Laboratory). Once tumors were established (˜200 mm^3 in volume), mice were randomized into treatment groups (n=10 mice per group) and injected intraperitoneally (i.p.) twice per week with anti-FGFR3 antibodies or isotype control at indicated doses. Tumor volume was expressed in mm^3 using the formula: V=0.5×a×b^2 where a and b were the long and short diameters of the tumor, respectively. Tumor sizes were monitored twice weekly. All procedures were conducted according to the guidelines of the Regeneron Institutional Animal Care and Use Committee. All data were analyzed using GraphPad Prism and tumor sizes were graphed as mean±SEM.

B1: mAb063: parental anti-FGFR3 antibody; anchor or additional arm; parent of BiP063N2 (antibody)
heavy: QVQLQESGPGLVKPSETLSLTCTVSGDSINSYFWSWIRQLPGKELEWIGHIYSSGSTRYNPSLQSRVTISIDTSKNQFSLKLSSVTAADTAVYYCARGASAVDYWGQGTLVTVSSASTKGPSVFPLAPCSRSTSESTAALGCLVKDYFPEPVTVSWNSGALTSGVHTFPAVLQSSGLYSLSSVVTVPSSSLGTKTYTCNVDHKPSNTKVDKRV[human IgG4 Fc with S228P (EU numbers) cut from this listing]
light: EIVLTQSPGTLSLSPGERATLSCRTSQSISSGYLAWYQQKPGQAPRLLIYGASRRATGIPDRFSGSGSGTDFTLTISRLEPEDFVVYYCQQYGSSPYTFGQGTKLEIKRTVAAPSVFIFPPSDEQLKSGTASVVCLLNNFYPREAKVQWKVDNALQSGNSQESVTEQDSKDSTYSLSSTLTLSKADYEKHKVYACEVTHQGLSSPVTKSFNRGEC
Question: With B1 as the molecule, how does the “effect on growth of BaF3 cells expressing FGFR3 S249C+V557M” value [1] read?
Answer: robustly inhibited the growth

Question: What about the “effect on cell viability relative to control” value [2] of the same molecule?
Answer: diminished cell viability in a dose-dependent manner

Question: And the “pMAPK after FGF1/heparin stimulation, WT hFGFR3b” value [3]?
Answer: no increases in pMAPK

Question: What about the “tumor growth after discontinuation of dosing at day 32” value ([4]; BiP063N2 6.65 mg/kg, mAb063 5 mg/kg) of the same molecule?
Answer: sustained tumor growth suppression until day 46

Question: And the “effect on UMUC14 tumors” value ([4]; mAb063 10 and 3 mg/kg, BiP063N2 13.3 and 4 mg/kg, i.p. twice per week)?
Answer: tumor regression
